Results: patent US20220062371A1, “LIGAND-DRUG-CONJUGATES AS SUBSTRATES FOR SELECTIVE CLEAVAGE BY THE EXOPEPTIDASE ACTIVITY OF CATHEPSIN B” (DEBIOPHARM RESEARCH & MANUFACTURING S.A., priority 2017, published 2022)
Read-outs that look alike come from different tables or passages of the source. At least one peptide structure holds a part that was inferred or is arguable (an end, a ring closure or a residue). Some entries share one result that the patent states for a list of compounds. Positions of bridges follow the written chain, without caps; N, C: chain ends. Non-standard residues stand in square brackets, D forms with d. Residues, ends and D or L forms follow the SMILES beside them. Groups on a side chain read outwards from the residue. Chains are numbered I, II in the order given. *: point of attachment. DM1Mal(CH2)2CO = COc1cc2cc(c1Cl)N(C)C(=O)C[C@H](OC(=O)[C@H](C)N(C)C(=O)CCSC1CC(=O)N(CCC(=O)*)C1=O)[C@]1(C)O[C@H]1[C@H](C)[C@@H]1C[C@@](O)(NC(=O)O1)[C@H](OC)/C=C/C=C(\C)C2; Camptothecin(20S-OCO) = CC[C@@]1(OC(=O)*)C(=O)OCc2c1cc1n(c2=O)Cc2cc3ccccc3nc2-1; X1 = CC[C@@]1(O*)C(=O)OCc2c1cc1n(c2=O)Cc2cc3ccccc3nc2-1; X2 = CC(=O)N[C@@H](CSC1CC(=O)N(CCC(=O)*)C1=O)C(=O)O; Dolaproine = CO[C@@H]([C@@H]1CCCN1)[C@@H](C)C(=O)O; Dil = CC[C@H](C)[C@H](NC)[C@@H](CC(=O)O)OC; NMe2Val = CC(C)[C@@H](C(=O)*)N(C)C; PEG5 = NCCOCCOCCOCCOCCOCCC(=O)O; Cit = NC(=O)NCCC[C@H](N)C(=O)O; PEG4 = NCCOCCOCCOCCOCCC(=O)O; Dab = NCC[C@H](N)C(=O)O; Dap = NC[C@H](N)C(=O)O; Sar = CNCC(=O)O

Target: T1, recombinant human Cathepsin B (Homo sapiens, UniProt P07858)
T1 construct: purchased R&D Systems (Bio-Techne AG) 953-CY-010
Assay: Recombinant human Cathepsin B-induced cleavage (in vitro enzymatic cleavage assay, UHPLC-MS/MS)
Type: biochemical
Details: for Ratio (T1/2 Compound/T1/2 Reference): reference Cys-MC-Val-Cit-PABC-MMAF; for cleavage rate compared to reference PABC compound (times faster): versus Cys-MC-Val-Cit-PABC-MMAF
Method: Cat B-induced cleavage of the compounds of the present invention was evaluated according to the in vitro enzymatic cleavage assay using recombinant human Cathepsin B and UHPLC-MS/MS analysis as described below.
Reference compounds Cys-MC-Val-Cit-PABC-MMAF and MMAF were used as positive controls.
The in vitro enzymatic assay was conducted at 37° C. with the test compounds at a concentration of 10 μM (2.5 μM when the test compound is an antibody-drug conjugate) in the presence of activated recombinant human Cathepsin B enzyme at 2 μg/mL in a 25 mM MES buffer pH 5.0. The enzymatic cleavage reaction was stopped for each defined time point by mixing an equal volume of acetonitrile+0.1% FA containing an internal standard (warfarine at 8 μM).
Analysis was conducted using a Waters Acquity UPLC System coupled to a Waters Xevo TQ triple quad mass spectrometer. UHPLC was conducted depending on the test compounds with a BEH C8 1.7 μm 100×2.1 mm or BEH C18 1.7 μm 50×2.1 mm or HSS T3 1.7 μm 50×2.1 mm columns heated at 45° C. or 50° C. and fitted with 2 μm insert filter pre-columns (available from Waters), and solvent systems A1 (H2O+0.1% FA) and B1 (acetonitrile+0.1% FA) at a flow rate of 0.6 mL/min and a 10-95% gradient of B1 over 1.9 min.
MS/MS was performed using electrospray ionization (ESI) interface in positive mode and specific MRM transitions for each tested compound.

Compound: COc1cc2cc(c1Cl)N(C)C(=O)C[C@H](OC(=O)[C@H](C)N(C)C(=O)CCSC1CC(=O)N(CC3CCC(C(=O)N[C@@H](Cc4ccccc4)C(=O)N[C@@H](CCCNC(N)=O)C(=O)N[C@@H](CCCCNC(=O)CCOCCOCCOCCOCCOCCNC(=O)CN4C(=O)CC(SC[C@H](NC(C)=O)C(=O)O)C4=O)C(=O)N[C@@H](Cc4ccc(O)cc4)C(=O)O)CC3)C1=O)[C@]1(C)O[C@H]1[C@H](C)[C@@H]1C[C@@](O)(NC(=O)O1)[C@H](OC)/C=C/C=C(\C)C2 (stereo partly drawn) [Compound 22, DM1-Mcc-Phe-Cit-Lys(PEG5-Ma-Cys-Ac)-Tyr-OH]
- Ratio (T1/2 Compound/T1/2 Reference): 0.005

Compound: CC[C@@]1(OC(=O)NCC[C@H](NC(=O)[C@H](CCCNC(=N)N)NC(=O)[C@H](Cc2ccccc2)NC(=O)CCOCCOCCOCCOCCOCCNC(=O)[C@@H](N)CCCNC(=N)N)C(=O)N[C@@H](Cc2ccccc2)C(=O)O)C(=O)OCc2c1cc1n(c2=O)Cc2cc3ccccc3nc2-1 [Compound 10, Arg-PEG4-Phe-Arg-Dab(CO-CPT)-Phe-OH] (H-R[PEG5]FR[Dab](Camptothecin(20S-OCO))F-OH; N-terminus assumed)
- Cat B-induced cleavage, in words: very fast
- cleavage rate compared to reference PABC compound (times faster): up to 10 fold

Compound: COc1cc2cc(c1Cl)N(C)C(=O)C[C@H](OC(=O)[C@H](C)N(C)C(=O)CCSC1CC(=O)N(CCC(=O)N[C@@H](Cc3ccccc3)C(=O)N[C@@H](CCCCN)C(=O)N[C@@H](CCCCNC(=O)CCOCCOCCOCCOCCNC(=O)CCN3C(=O)CC(SC[C@H](NC(C)=O)C(=O)O)C3=O)C(=O)N[C@@H](Cc3ccccc3)C(=O)O)C1=O)[C@]1(C)O[C@H]1[C@H](C)[C@@H]1C[C@@](O)(NC(=O)O1)[C@H](OC)/C=C/C=C(\C)C2 (stereo partly drawn) [Compound 5, DM1-Mal-Phe-Lys-Lys(PEG4-Mal-Cys-Ac)-Phe-OH] ({DM1Mal(CH2)2CO}-FKK([PEG4-X2])F-OH)
- Ratio (T1/2 Compound/T1/2 Reference): 0.05
- cleavage rate compared to reference PABC compound (times faster): 20 fold

Compound: COc1cc2cc(c1Cl)N(C)C(=O)C[C@H](OC(=O)[C@H](C)N(C)C(=O)CCSC1CC(=O)N(CC3CCC(C(=O)N[C@@H](CCCNC(N)=O)C(=O)N[C@@H](CCCCNC(=O)CCOCCOCCOCCOCCOCCNC(=O)CN4C(=O)CC(SC[C@H](NC(C)=O)C(=O)O)C4=O)C(=O)N[C@@H](Cc4ccc(O)cc4)C(=O)O)CC3)C1=O)[C@]1(C)O[C@H]1[C@H](C)[C@@H]1C[C@@](O)(NC(=O)O1)[C@H](OC)/C=C/C=C(\C)C2 (stereo partly drawn) [Compound 23, DM1-Mcc-Cit-Lys(PEG5-Ma-Cys-Ac)-Tyr-OH]
- Ratio (T1/2 Compound/T1/2 Reference): 0.00004

Compound: COc1cc2cc(c1Cl)N(C)C(=O)C[C@H](OC(=O)[C@H](C)N(C)C(=O)CCSC1CC(=O)N(CCC(=O)N[C@@H](Cc3ccccc3)C(=O)N[C@@H](CCCNC(N)=O)C(=O)N[C@@H](CCCCNC(=O)CCOCCOCCOCCOCCNC(=O)CCN3C(=O)CC(SC[C@H](NC(C)=O)C(=O)O)C3=O)C(=O)N[C@@H](Cc3ccccc3)C(=O)O)C1=O)[C@]1(C)O[C@H]1[C@H](C)[C@@H]1C[C@@](O)(NC(=O)O1)[C@H](OC)/C=C/C=C(\C)C2 (stereo partly drawn) [Compound 6, DM1-Mal-Phe-Cit-Lys(PEG4-Mal-Cys-Ac)-Phe-OH] ({DM1Mal(CH2)2CO}-F[Cit]K([PEG4-X2])F-OH)
- Ratio (T1/2 Compound/T1/2 Reference): 0.02

Compound: COc1cc2cc(c1Cl)N(C)C(=O)C[C@H](OC(=O)[C@H](C)N(C)C(=O)CCSC1CC(=O)N(CCC(=O)NCCCC[C@H](NC(=O)[C@H](CCCCN)NC(=O)[C@H](Cc3ccccc3)NC(=O)CCOCCOCCOCCOCCNC(=O)CCN3C(=O)CC(SC[C@H](NC(C)=O)C(=O)O)C3=O)C(=O)N[C@@H](Cc3ccccc3)C(=O)N[C@@H](Cc3ccccc3)C(=O)N[C@@H](CCCCN)C(=O)O)C1=O)[C@]1(C)O[C@H]1[C@H](C)[C@@H]1C[C@@](O)(NC(=O)O1)[C@H](OC)/C=C/C=C(\C)C2 (stereo partly drawn) [Compound 28, Ac-Cys-Mal-PEG4-Phe-Lys-Lys(Mal-DM1)-Phe-Phe-Lys-OH] ({X2-PEG4}-FKK(DM1Mal(CH2)2CO)FFK-OH)
- Cat B-induced cleavage, in words: rapidly cleaved
- Ratio (T1/2 Compound/T1/2 Reference): 0.03

Compound: CC[C@H](C)[C@@H]([C@@H](CC(=O)N1CCC[C@H]1[C@H](OC)[C@@H](C)C(=O)N[C@@H](Cc1ccccc1)C(=O)NCCCC[C@H](NC(=O)[C@H](CCCCN)NC(=O)[C@H](Cc1ccccc1)NC(=O)CCOCCOCCOCCOCCNC(=O)CCN1C(=O)CC(SC[C@H](NC(C)=O)C(=O)O)C1=O)C(=O)N[C@@H](Cc1ccccc1)C(=O)O)OC)N(C)C(=O)[C@@H](NC(=O)[C@H](C(C)C)N(C)C)C(C)C (stereo partly drawn) [Compound 13, Ac-Cys-Mal-PEG4-Phe-Lys-Lys(AF)-Phe-OH] (I: {X2-PEG4}-FKKF-OH / II: NMe2Val-V[Dil][Dolaproine]F; amide I:3-II:C)
- Cat B-induced cleavage, in words: very fast
- cleavage rate compared to reference PABC compound (times faster): up to 10 fold

Compound: COc1cc2cc(c1Cl)N(C)C(=O)C[C@H](OC(=O)[C@H](C)N(C)C(=O)CCSC1CC(=O)N(CCC(=O)N[C@@H](Cc3ccccc3)C(=O)N[C@@H](CCCNC(N)=O)C(=O)N[C@@H](Cc3ccccc3)C(=O)N[C@@H](CCCCNC(=O)CCOCCOCCOCCOCCNC(=O)CCN3C(=O)CC(SC[C@H](NC(C)=O)C(=O)O)C3=O)C(=O)O)C1=O)[C@]1(C)O[C@H]1[C@H](C)[C@@H]1C[C@@](O)(NC(=O)O1)[C@H](OC)/C=C/C=C(\C)C2 (stereo partly drawn) [Compound 7, DM1-Mal-Phe-Cit-Phe-Lys(PEG4-Mal-Cys-Ac)-OH] ({DM1Mal(CH2)2CO}-F[Cit]FK([PEG4-X2])-OH)
- Ratio (T1/2 Compound/T1/2 Reference): 0.09

Compound: CC[C@@]1(OC(=O)OC[C@H](NC(=O)[C@H](CCCNC(=N)N)NC(=O)[C@H](Cc2ccccc2)NC(=O)CCOCCOCCOCCOCCOCCNC(=O)[C@@H](N)CCCNC(=N)N)C(=O)N[C@@H](Cc2ccccc2)C(=O)O)C(=O)OCc2c1cc1n(c2=O)Cc2cc3ccccc3nc2-1 [Compound 11, Arg-PEG4-Phe-Arg-Ser(CO-CPT)-Phe-OH] (H-R[PEG5]FRS(Camptothecin(20S-OCO))F-OH; N-terminus assumed)
- Cat B-induced cleavage, in words: very fast
- cleavage rate compared to reference PABC compound (times faster): up to 10 fold

Compound: CC[C@@]1(OC(=O)NC[C@H](NC(=O)[C@H](CCCNC(=N)N)NC(=O)[C@H](Cc2ccccc2)NC(=O)CCOCCOCCOCCOCCOCCNC(=O)[C@@H](N)CCCNC(=N)N)C(=O)N[C@@H](Cc2ccccc2)C(=O)O)C(=O)OCc2c1cc1n(c2=O)Cc2cc3ccccc3nc2-1 [Compound 9, Arg-PEG4-Phe-Arg-Dap(CO-CPT)-Phe-OH] (H-R[PEG5]FR[Dap](Camptothecin(20S-OCO))F-OH; N-terminus assumed)
- Cat B-induced cleavage, in words: very fast
- cleavage rate compared to reference PABC compound (times faster): up to 10 fold

Compound: CC[C@@]1(OC(=O)CN(C)C(=O)CC[C@H](NC(=O)[C@H](CCCNC(=N)N)NC(=O)[C@H](Cc2ccccc2)NC(=O)CCOCCOCCOCCOCCOCCNC(=O)[C@@H](N)CCCNC(=N)N)C(=O)N[C@@H](Cc2ccccc2)C(=O)O)C(=O)OCc2c1cc1n(c2=O)Cc2cc3ccccc3nc2-1 [Compound 8, Arg-PEG4-Phe-Arg-Glu(Sar-OCPT)-Phe-OH] (H-R[PEG5]FRE([Sar-X1])F-OH; N-terminus assumed)
- Cat B-induced cleavage, in words (listed as compound 8): very fast
- cleavage rate compared to reference PABC compound (times faster): up to 10 fold

Compound: COc1cc2cc(c1Cl)N(C)C(=O)C[C@H](OC(=O)[C@H](C)N(C)C(=O)CCSC1CC(=O)N(CCC(=O)NCCCC[C@H](NC(=O)[C@H](CCCCN)NC(=O)[C@H](Cc3ccccc3)NC(=O)CCOCCOCCOCCOCCNC(=O)CCN3C(=O)CC(SC[C@H](NC(C)=O)C(=O)O)C3=O)C(=O)N[C@@H](Cc3ccccc3)C(=O)O)C1=O)[C@]1(C)O[C@H]1[C@H](C)[C@@H]1C[C@@](O)(NC(=O)O1)[C@H](OC)/C=C/C=C(\C)C2 (stereo partly drawn) [Compound 12, Ac-Cys-Mal-PEG4-Phe-Lys-Lys(Mal-DM1)-Phe-OH] ({X2-PEG4}-FKK(DM1Mal(CH2)2CO)F-OH)
- Cat B-induced cleavage, in words: very fast
- Ratio (T1/2 Compound/T1/2 Reference): 0.14
- cleavage rate compared to reference PABC compound (times faster): up to 10 fold
